Source: the supplement of paper PMC4166925
± gives the standard deviation of the averaged measurements. Whole data set: some 33,000 sequences, median “E-score (dimensionless, -0.5 to 0.5)” near -0.046, cut for the highest 2% near 0.36. Some of the results follow.

Test system: T1, SpTbr T-box DNA-binding domain (GST fusion)
T1 sequence: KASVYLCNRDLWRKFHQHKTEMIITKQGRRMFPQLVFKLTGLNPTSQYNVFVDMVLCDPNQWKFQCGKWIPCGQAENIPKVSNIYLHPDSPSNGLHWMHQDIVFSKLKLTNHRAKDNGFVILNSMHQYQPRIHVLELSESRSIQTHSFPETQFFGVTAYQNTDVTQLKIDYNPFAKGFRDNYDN
Experiment: PBM E-score of 8-mer (E-score (dimensionless, -0.5 to 0.5)); Tbr is Tbrain of the sea star Patiria miniata (Pm) or the sea urchin Strongylocentrotus purpuratus (Sp); higher = stronger binding preference; most listed sequences are background and not binding sites
Settings: the construct has about 5 more residues each side
Experimental: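 Universal protein-binding microarray (Agilent AMADID 016060, 60-bp probes with a 35-bp variable region) incubated with 200 nM GST-fused Strongylocentrotus purpuratus Tbr T-box DNA-binding domain (residues 362-554) in PBS pH 7.5. Scored for every ungapped 8-mer (given with its reverse complement) as E-score (range -0.5 to 0.5; >0.45 counts as bound) and Z-score of median probe intensity. Two replicate arrays (datasets 1 and 2).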
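Further: protein at 200 nM in PBS on universal double-stranded arrays.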

Sequence | PBM E-score of 8-mer
AGTGAACC | -0.176 ± 0.084
CACGAAAG | -0.101 ± 0.019
GTCTTAAA | -0.138 ± 0.061
CATACGTC | -0.146 ± 0.039
ATAATCTA | -0.102 ± 0.077
GGCGTCCC | -0.252 ± 0.051
CGCCCTAA | -0.0107 ± 0.049
CAGCCAGC | -0.197 ± 0.042
ATAAGACC | -0.0531 ± 0.062
AACCTTGA | 0.0164 ± 0.045
CGCCGGAA | 0.103 ± 0.014
ACCGGCCT | -0.0405 ± 0.017
CTGTCCCC | -0.128 ± 0.04
GACACCAA | 0.327 ± 0.024
CTGTCCAA | 0.0304 ± 0.0091
GGTCTGAC | -0.0722 ± 0.053
CTTACTTC | 0.0909 ± 0.034
CGAAAGTA | 0.102 ± 0.06
GGGCGCCA | 0.103 ± 0.036
CCACCCTA | 0.0825 ± 0.11
CCATTTCG | 0.126 ± 0.016
GACTCGGA | -0.0707 ± 0.011
AACATAAC | 0.162 ± 0.0069
CCGATTAG | -0.0752 ± 0.075
ATCCTGGG | -0.235 ± 0.046

Sequence | PBM E-score of 8-mer
CCATTTAG | -0.0123 ± 0.0033
CACCTGGA | 0.297 ± 0.025
TCTTGTAA | -0.00011 ± 0.013
CTCGGTTA | -0.116 ± 0.045
ACGGAAGG | 0.00251 ± 0.053
CTATCAAA | -0.16 ± 0.067
CTCCGGGC | -0.239 ± 0.039
CCCCGAGC | -0.16 ± 0.044
TCAAGCCA | -0.0895 ± 0.0015
AGATGCTG | -0.151 ± 0.043
GCGTGCCC | -0.285 ± 0.1
GAAAGGTA | -0.0855 ± 0.047
CCTACGAG | -0.119 ± 0.036
CCTAGAGA | -0.13 ± 0.0086
GCAGCTGC | 0.000255 ± 0.034
TCGGCGCA | -0.193 ± 0.0032
AAAAACCC | -0.0852 ± 0.029
CTAGTGTA | 0.0859 ± 0.081
GATGCTCC | -0.18 ± 0.03
GTTTCATA | -0.268 ± 0.054
CGCAACGA | -0.0639 ± 0.012
ATTTCAGA | -0.188 ± 0.11
AACTTCGG | -0.204 ± 0.07
TTCGGCAA | -0.0157 ± 0.08
CAGATGCG | -0.139 ± 0.019

Sequence | PBM E-score of 8-mer
CTCAAAAA | 0.0658 ± 0.021
AAACTAGG | -0.16 ± 0.04
CGTTCCAA | -0.0379 ± 0.052
TAAGAAAA | -0.215 ± 0.13
GTTGAACA | -0.0139 ± 0.077
GGTCCCCA | -0.0658 ± 0.0046
AGCCCTCA | -0.0251 ± 0.02
GCCCGTAC | -0.119 ± 0.012
CCACAAAC | 0.0853 ± 0.026
GGTCTGCA | -0.105 ± 0.029
ACGCTCAT | -0.0367 ± 0.051
CGCTACGC | 0.169 ± 0.025
AAAGGGAC | -0.175 ± 0.0097
ATTTCGGG | 0.0907 ± 0.092
ACTCGACA | 0.24 ± 0.029
CTTTATAA | -0.144 ± 0.059
ACTGGTAT | -0.125 ± 0.069
ACCGGGTC | 0.0309 ± 0.053
CTACGATC | -0.0614 ± 0.015
CGGCGTAG | -0.0938 ± 0.085
ACATTTAC | 0.0595 ± 0.061
ACAATTGC | 0.265 ± 0.036
ATTCAGAC | -0.11 ± 0.0071
CCTAGTGA | 0.0721 ± 0.072
CTAAAGGC | -0.0335 ± 0.042

Sequence | PBM E-score of 8-mer
CGTTTTTA | -0.0675 ± 0.078
GGGCATAC | -0.246 ± 0.087
CTCTGTCA | -0.0399 ± 0.02
CCCTGCGA | 0.23 ± 0.044
CGTCGGCA | 0.176 ± 0.047
CGTCGCAA | 0.168 ± 0.074
CGGCGTGA | 0.33 ± 0.047
CCTACCAA | -0.134 ± 0.099
AGGGTGCA | 0.188 ± 0.025
AACTTGAA | -0.165 ± 0.064
CTTTCTGA | -0.136 ± 0.0074
AAATCACC | 0.15 ± 0.054
GCACAGGA | -0.165 ± 0.11
GTCAAAGA | 0.0178 ± 0.017
AATCCGCT | -0.0264 ± 0.074
GGATATAC | -0.128 ± 0.0093
TACGTAGA | -0.178 ± 0.03
ACAGCTCA | 0.267 ± 0.0069
CATTCCGC | -0.141 ± 0.011
ATAGACAG | 0.031 ± 0.055
CTCGGTTC | 0.0332 ± 0.0022
AAGTATTC | -0.169 ± 0.032
AGAGTGCT | -0.0252 ± 0.00083
CAGCTCAA | -0.0425 ± 0.024
ATTTGGCC | -0.0948 ± 0.054

Sequence | PBM E-score of 8-mer
AACGCCTT | 0.367 ± 0.041
ATCATAAT | -0.12 ± 0.018
CGGCGTTA | 0.182 ± 0.0041
ATTGAGCC | -0.00974 ± 0.0028
CAGTTTGC | 0.177 ± 0.02
CATAAAGG | -0.201 ± 0.0029
CCTCCTAA | -0.2059 ± 0.001
CAGTCTCC | -0.203 ± 0.075
GATAGACC | -0.237 ± 0.014
ATAAAAAC | -0.268 ± 0.15
CACCAGGC | 0.0753 ± 0.055
TATAAGGA | -0.225 ± 0.034
TAAGTAGA | -0.00118 ± 0.072
CACCTAAG | 0.383 ± 0.019
CCCTTCAG | -0.197 ± 0.012
ATCTCAGA | -0.101 ± 0.0026
CACCGATA | 0.0129 ± 0.1
AGTTATGG | -0.0468 ± 0.017
ATGATGCC | -0.0159 ± 0.0065
ATTCACGC | 0.424 ± 0.0061
GACTACGA | 0.0309 ± 0.02
GAAGCCCA | -0.236 ± 0.044
GATGTACC | -0.237 ± 0.025
AACCGGGC | -0.154 ± 0.04
CCGGTGCA | -0.182 ± 0.092

Sequence | PBM E-score of 8-mer
AGCTGTAA | 0.035 ± 0.08
CCGGCAGG | -0.0984 ± 0.018
CCTTTGAG | -0.17 ± 0.018
CTCATATC | -0.0945 ± 0.0071
TATGGTCA | -0.0991 ± 0.065
ATGAGGGA | -0.142 ± 0.035
AGATGTTG | 0.0448 ± 0.039
AGTTTAAA | 0.0237 ± 0.0037
AGGTCGGG | -0.212 ± 0.048
GACGCTCA | 0.0551 ± 0.034
GCAGAAGC | -0.189 ± 0.017
ACAGTTAT | 0.113 ± 0.024
AGCTAGCA | 0.0518 ± 0.0069
GACCCCAA | -0.164 ± 0.023
AATGCAGT | -0.188 ± 0.028
CCATGTGC | 0.205 ± 0.015
AGCCAGGG | -0.2 ± 0.055
ACTGGATG | -0.11 ± 0.062
AGCCTCTC | -0.0976 ± 0.019
CCACACCG | 0.226 ± 0.071
CAGCAGCG | -0.139 ± 0.038
CCTGCGAC | 0.175 ± 0.017
CGTAAGCA | 0.0121 ± 0.027
CAGTCCAG | -0.161 ± 0.049
AGATAAAC | -0.0463 ± 0.0019

Sequence | PBM E-score of 8-mer
CGGGCCAG | -0.142 ± 0.059
CTTGGGGC | 0.0489 ± 0.022
CAGCGCAA | -0.0911 ± 0.0026
AAGACATG | 0.0325 ± 0.038
GGCCCAAA | -0.218 ± 0.064
ACTGGACC | -0.203 ± 0.069
GAATGTGC | 0.228 ± 0.025
ATCATGAA | -0.173 ± 0.011
CGCATTAG | 0.0791 ± 0.035
CTTACGAC | -0.0779 ± 0.089
AAAGTCAG | -0.353 ± 0.025
AAAACAAG | -0.177 ± 0.051
CGTGCGAG | 0.373 ± 0.018
GCCCCTAA | -0.229 ± 0.015
AGCACGTA | 0.162 ± 0.023
CAGTGTGG | 0.243 ± 0.043
CAAACTGC | 0.0357 ± 0.04
ACGCGTAC | 0.096 ± 0.088
GATACGCC | -0.045 ± 0.046
AATTAACT | 0.192 ± 0.035
AAGCGTAT | -0.14 ± 0.068
AAGCGCTA | 0.281 ± 0.0036
